# In PMC12136788:
# This is one part of the list.
# T1: UNK ZnF1-3 (human, UniProt Q9C0B0 31-174)
# T1 sequence: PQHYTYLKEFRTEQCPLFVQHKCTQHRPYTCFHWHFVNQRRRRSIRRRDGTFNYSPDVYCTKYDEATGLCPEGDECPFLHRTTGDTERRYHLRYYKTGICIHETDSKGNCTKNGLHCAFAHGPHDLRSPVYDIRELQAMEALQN
# B1: chr17:39846101:39846102:+_ENSG00000173812_ENST00000591776|hu_hu|FALSE|FALSE (ssRNA)
# RNA: GGGAGUUCUACAGUCCGACGAUCAUCAUCAGCGAUCCCUUGGACAGUAGUAAGGGUCUUCCUGCCGUUUCUCUGUUGAAUUCUUAUAUGGAUAUAAUCCUCAGUGCCAGCAGGAAGCAGGUCAUCACCCUUACUUGCAUCAGCCAACAGAGGAUUGAGCAUCA
# B2: 90371925_90372597_14501_CDS_ENSG00000112159_ENST00000369393|human|control|control (ssRNA)
# RNA: GGGAGUUCUACAGUCCGACGAUCGUUGUCAUCUUUAGCAACAAGUUCAGAAUCUUCCUCAUCCAUUCCUGGUCCUGUUUCUUCAGUUUUAUUGUCUUCUUCCUCCUCAUCUUCCUCCUCAUCAUCAUCACCCCAAAGCCUCUCCAACAGAGGAUUGAGCAUCA
# B3: chr9:114624755:114624756:+_ENSMUSG00000032435_ENSMUST00000047404|mus_mus|FALSE|FALSE (ssRNA)
# RNA: GGGAGUUCUACAGUCCGACGAUCGAUGUCUUCAAAAUUAUCUUCUACUUUCAAAGUCUGAAAAUUUUCAUGUAAUAUUCCUAUUUUCUUAUCAUUAUCCCACCCUGCUGGAAUAAACACUGCGUCCUUCUCCACCACCACCGCCAACAGAGGAUUGAGCAUCA
# B4: chr5:132409753:132409754:+_ENSG00000170606_ENST00000304858|hu_hu|FALSE|FALSE (ssRNA)
# RNA: GGGAGUUCUACAGUCCGACGAUCUCUAUUAAAUGCACAUACAGAAACUUGAUAAGCAGAGUGGCCCAUGUCUACAAAAACUACAUUUCUUGGUUUCUCUUCUAAGGCAGGAAGAUCCUGCUUAUAGAUUCCAUAUGCAAGAGCCAACAGAGGAUUGAGCAUCA
# B5: chr11:46405157:46405158:+_ENSG00000110492_ENST00000395566|hu_hu|hu_hu_hu_mus_False|18_58 (ssRNA)
# RNA: GGGAGUUCUACAGUCCGACGAUCCCCUCCCCACUUUGGGCACUUGGUGUGGGCGUGAGAGGACAGGCGUGAUUGACAAAGCUAACGGGAAGACAAAAGGCACUGGUGGGUUAUAUCUCGGGCCUGGGGGAGAGGAGGGCUCCGCAACAGAGGAUUGAGCAUCA
# B6: chr10:33214929:33214930:-_ENSG00000150093_ENST00000302278|hu_hu|hu_hu_hu_mus_True|78_98 (ssRNA)
# RNA: GGGAGUUCUACAGUCCGACGAUCAACAAGUUCAUUGAAUACUUCUCCUCUGUCAGUAAGACUGAGCACAUUUUUGUAGCUAAAUGGGCUGGUGCAGUUUUGUUCACUUGUACAAGGAUUUCUUAGCUUUGCUGGGGUUGUGCUCAACAGAGGAUUGAGCAUCA
# B7: chr1:60041781:60041782:+_ENSMUSG00000041040_ENSMUST00000036540|mus_hu|mus_mus_mus_hu_False|1_68 (ssRNA)
# RNA: GGGAGUUCUACAGUCCGACGAUCAAGUUUACAAUAGUAAAGUAAAUGCAGUAGUGGCAAAUUUUCUUUACUUUAGUUUCACAAAAGAAAAUCUUUAUAACCCAGUCCUAGUCUUGGACAUAGUGAAAGCUAUAAAUGCCACUGCAACAGAGGAUUGAGCAUCA
# B8: chr2:181324804:181324805:-_ENSMUSG00000000823_ENSMUST00000128553|mus_hu|FALSE|FALSE (ssRNA)
# RNA: GGGAGUUCUACAGUCCGACGAUCGAUGGCACCCCCUUGGCACCGCUGGUAAUGGUACUUGAGCCCGUAGAUGCUGGGGAACUCCAGCCAGCACCCUGAGUUUGGACACUUCACCCUCGAGUGUGCCUUGAACUCAUCCUUCCACAACAGAGGAUUGAGCAUCA
# B9: chr2:168009442:168009443:-_ENSMUSG00000051149_ENSMUST00000088001|mus_hu|FALSE|FALSE (ssRNA)
# RNA: GGGAGUUCUACAGUCCGACGAUCGCGAUUACAGUAGAGGCAUUUGCUAGUAAAAUUGUGUAUUUUCAUAAUGUAGUUGGCUACUGCUGGGACUUUCUCAGCUUUAUGUUCUUUUUCGAAGUGCACACUAUAGACAUUUUCAGGCAACAGAGGAUUGAGCAUCA
# B10: chr18:65375181:65375182:+_ENSMUSG00000024589_ENSMUST00000163516|mus_hu|FALSE|FALSE (ssRNA)
# RNA: GGGAGUUCUACAGUCCGACGAUCGAGAACCGCAACAGGCAGUGUGUGAGCUCCGGCACGUACUUCUCAGCCUCAUGUAAGUGGCCCAUAAUAACUACAGCUUCAGCAGACAACUAAAGAGACUGCAUUAAGGUGAUUUCUCUGCAACAGAGGAUUGAGCAUCA
# B11: chr7:118215863:118215864:-_ENSMUSG00000005610_ENSMUST00000162415|mus_mus|motif|central (ssRNA)
# RNA: GGGAGUUCUACAGUCCGACGAUCUAUUGCAACAACUCAAGUAUUACUGAGCAAAGUGCAUCUCUACAGUAUUCAGUGUUGCGGUUCAGUUUUCUAACUUAAAACAGCCUAUGGUAACUGGCAGCAAAGAAGGUCCUUGCAAUACAACAGAGGAUUGAGCAUCA
# B12: chr6:38652254:38652255:-_ENSG00000124767_ENST00000373365|hu_hu|hu_hu_hu_mus_False|28_58 (ssRNA)
# RNA: GGGAGUUCUACAGUCCGACGAUCCGAGAACUUCAUAGCAGGGAAGUCAAGCUUCUGCAGGAGGGUCAGUCCAAGAACUCUAGUAUAAAAAUCCAGGGACUUCUUAGGAUCCUUCACUCUUAGCAUCGUUUGCUGCAGUAGAAACAACAGAGGAUUGAGCAUCA
# B13: chr1:115276673:115276674:-_ENSG00000009307_ENST00000339438|perfect_dup|motif|central (ssRNA)
# RNA: GGGAGUUCUACAGUCCGACGAUCUGUGAAUUCCACAUCAUCGCCAGGCUGUAAGGUUUCUAAGUCACCCUUAAAUUCACGGUAGUGAAAGAAUAUCUCUUUUACAACAUCACCUCUUUCAAUAAAGCCAAAUGCCUCCUUCAUCAACAGAGGAUUGAGCAUCA
# B14: chrX:98860016:98860017:+_ENSMUSG00000034160_ENSMUST00000044475|mus_mus|motif|central (ssRNA)
# RNA: GGGAGUUCUACAGUCCGACGAUCUUCUUUAUAGUGCAUCAGUGCUUCCUGCAGCUUGCCCUGCUGUUGCAGUACACUUGCGGAAUUGGAAUGUGCAGCAGCAAACUCUGGGAAGACUUCUAAUGCUUUGCGAUACAGGCGAACCAACAGAGGAUUGAGCAUCA
# Target: T1, UNK ZnF1-3
# Assay: nsRBNS (natural sequence RNA bind-n-seq); RBNS binding buffer (assumed for nsRBNS): 25 mM Tris pH 7.5, 150 mM KCl, 3 mM MgCl2, 0.01% Triton X-100, 500 ug/ml BSA, 20 U/ml SUPERase-In, 4 C; UNK is unkempt and MSI1 is Musashi-1; names of the RNAs are library labels; protein concentration not given here; high values mean tight binding
row,Binder,binding signal
1,B1,0.329 enrichment R
2,B2,0.464 enrichment R
3,B3,1.05 enrichment R
4,B4,1.1 enrichment R
5,B5,2.97 enrichment R
6,B6,0.798 enrichment R
7,B7,0.57 enrichment R
8,B8,0.791 enrichment R
9,B9,1.32 enrichment R
10,B10,1.6 enrichment R
11,B11,1.38 enrichment R
12,B12,0.762 enrichment R
13,B13,1.2 enrichment R
14,B14,0.405 enrichment R
